# Test results: PubChem BioAssay AID1030 (National Center for Advancing Translational Sciences (NCATS), 2008)
# Out of some 220,000 compounds screened, about 16,000 (7.3%) were called active. The shares of active, inactive and inconclusive entries below differ from those in the screen. The call rests on the fitted dose curve; in most records, active means well fitted inhibition curve with a large enough effect (not every such curve was filed as active); inconclusive means small, poorly fitted or top-dose-only effect, or another doubt; inactive means no such curve, though single readings can be large or run the other way. No potency is given beside an inconclusive call; the fits are too rough.
# Molecular target: Aldehyde dehydrogenase 1A1 (Homo sapiens) (UniProt P00352)
# Experiment: qHTS Assay for Inhibitors of Aldehyde Dehydrogenase 1 (ALDH1A1);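 on activity, negative = inhibition: plate controls were no enzyme wells and a reference inhibitor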
# Details: Purified ALDH1A1, NADH fluorescence, propionaldehyde substrate; series mostly up to 75.3 µM; activity, negative = inhibition: at the top concentration
# Potency means the concentration at half of the fitted maximal effect; tags describe the fitted curve by direction and shape.
# UniProt P00352, sequence (P00352 whole entry, looked up): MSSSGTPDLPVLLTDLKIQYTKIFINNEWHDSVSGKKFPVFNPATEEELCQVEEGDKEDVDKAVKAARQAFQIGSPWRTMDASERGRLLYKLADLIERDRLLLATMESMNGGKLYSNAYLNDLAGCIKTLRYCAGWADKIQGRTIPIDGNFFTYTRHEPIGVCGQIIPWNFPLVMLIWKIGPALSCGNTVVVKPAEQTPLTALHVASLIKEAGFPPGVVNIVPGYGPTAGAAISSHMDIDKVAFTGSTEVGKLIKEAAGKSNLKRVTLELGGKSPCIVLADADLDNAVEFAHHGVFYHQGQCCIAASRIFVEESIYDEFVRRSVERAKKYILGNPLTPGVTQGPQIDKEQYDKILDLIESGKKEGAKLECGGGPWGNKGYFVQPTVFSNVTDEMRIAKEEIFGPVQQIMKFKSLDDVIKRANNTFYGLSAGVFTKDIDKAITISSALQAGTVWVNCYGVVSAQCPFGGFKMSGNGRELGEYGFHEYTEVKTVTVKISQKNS
Compound,Potency,"activity, negative = inhibition"
CCOc1ccc(NC(=O)CSc2nc3[nH]ncc3c(=O)n2-c2ccccc2OC)cc1,active: 8.91 µM,
COc1cc(/C=C/C(=O)OCC(=O)NC(=O)NCc2ccccc2)ccc1OCC#N,"inconclusive [inhibitor, single point]",
O=c1c(C(c2nnnn2C2CCCCC2)N2CCCCC2)coc2ccc(Cl)cc12 (configuration not stated),"inconclusive [inhibitor, partial curve, poor fit]",
CCC1(O)CC2CN(CCc3c([nH]c4ccccc34)[C@@](C(=O)OC)(c3cc4c(cc3OC)N(C=O)C3[C@]45CCN4CC=C[C@@](CC)([C@@H](OC(C)=O)[C@]3(O)C(=O)OC)[C@H]45)C2)C1 (some centres not stated),"inconclusive [inhibitor, single point]",
CC(C)CC[n+]1ccn(C2=C([O-])c3ccccc3C(=O)/C2=N\S(=O)(=O)c2ccccc2)c1,active: 8.91 µM,
CCCNC(=O)COC(=O)c1ccc(S(=O)(=O)N2CCCC2)cc1,,inactive: -2.76%
Cc1ccc(CSCCNC(=O)CCSc2ccccc2)cc1,"inconclusive [inhibitor, partial curve]",
O=C(C1=NN[C@@H]2C(=O)N(c3ccccc3C(F)(F)F)C(=O)[C@H]12)C(c1ccccc1)c1ccccc1,"inconclusive [inhibitor, single point]",
COCCCN(CC(=O)Nc1ccc(N2CCOCC2)cc1)S(=O)(=O)c1ccccc1,"inconclusive [inhibitor, partial curve]",
O=S(=O)(c1cccc(F)c1)N1CCN(C(=S)NCc2ccccc2)CC1,active: 14.1 µM,
c1ccc(-c2n[nH]c(-c3ccccc3)c2-c2nc3ccccc3[nH]2)cc1,"inconclusive [inhibitor, single point]",
CCCCn1c(NC(=O)c2ccc(Br)o2)c(S(=O)(=O)c2ccccc2)c2nc3ccccc3nc21,"inconclusive [inhibitor, single point]",
COc1ccc(S(=O)(=O)N2CCN(c3ccc4nnc(-c5ccccc5)n4n3)CC2)cc1,"inconclusive [inhibitor, single point]",
Cc1ccc(S(=O)(=O)N(CC(=O)N2CCCCCC2)c2ccccc2)cc1,"inconclusive [inhibitor, single point]",
CC(C)(C)NC(=O)C(c1ccc(O)cc1)N(Cc1ccco1)C(=O)Cn1nnc(-c2cccs2)n1 (configuration not stated),"inconclusive [inhibitor, partial curve]",
COc1cccc2oc(-c3ccco3)cc(=O)c12,"inconclusive [inhibitor, partial curve]",
CSc1cccc(NC(=O)Cc2ccccc2[N+](=O)[O-])c1,active: 35.5 µM,
CC(C)[C@H](NC(=O)c1ccccc1)C(=O)OCC(=O)NCCC1=CCCCC1,"inconclusive [inhibitor, single point]",
Cc1ccc(-c2nnn(CC(=O)N(Cc3ccccc3)C(C(=O)NC3CCCC3)c3ccncc3)n2)o1 (configuration not stated),"inconclusive [inhibitor, single point]",
O=C(Nc1ccccc1-c1nnc(SCc2ccccc2Cl)o1)c1ccccc1,"inconclusive [inhibitor, single point]",
O=C(CCl)NCc1cc(-c2ccc(Cl)cc2)no1,active: 22.4 µM,
CCn1cc(C(=O)NCCCOC(C)C)c2cc(OC)c(OC)cc2c1=O,"inconclusive [inhibitor, partial curve]",
Cc1ccc(NC(=O)CSCc2c(C)noc2C)cc1C,"inconclusive [inhibitor, single point]",

Compound,Potency,"activity, negative = inhibition"
C=CCNC(=O)c1ccc(OC)cc1,,inactive: 6.09%
CCOC(=O)N1CCC(NC(=O)C2CCCN(S(=O)(=O)c3ccc4c(c3)oc(=O)n4C)C2)CC1 (configuration not stated),,inactive: 0.762%
COc1ccc2[nH]c(C)c(CN3CCC(C)CC3)c(=O)c2c1,"inconclusive [inhibitor, single point]",
CN(C)c1cccc(C(=O)Nc2ccc3nc4n(c(=O)c3c2)CCCCC4)c1,"inconclusive [inhibitor, single point]",
CCCn1c(SCC(=O)Nc2cccc(S(=O)(=O)NC3=NCCCCC3)c2)nc2ccccc2c1=O,"inconclusive [inhibitor, partial curve, poor fit]",
S=C1NCCc2ccc(Cl)cc2C1c1ccccc1Cl (configuration not stated),,inactive: 13.2%
N/C(Cc1ccc([N+](=O)[O-])cc1)=N\OC(=O)c1cccc(Br)c1,"inconclusive [inhibitor, single point]",
COc1ccc(OC)c(C2C(C(=O)c3cccs3)=C(O)C(=O)N2CCN(C)C)c1 (configuration not stated),,inactive: -9.28%
CCOC(=O)c1cnc2c(-c3ccccc3)cnn2c1N,"inconclusive [inhibitor, single point]",
N#CCC(=O)Nc1ccc(C(=O)NCc2ccccn2)cc1,"inconclusive [inhibitor, single point]",
CCOc1cc(N2CCOCC2)c(OCC)cc1NC(C)C(=O)N1CCC(C)CC1 (configuration not stated),active: 11.2 µM,
CCOC(=O)/C(C#N)=N/Nc1c(C)n(C)n(-c2ccccc2)c1=O,active: 7.94 µM,
CCOc1ccc2nc(C)cc(C(=O)O)c2c1,"inconclusive [inhibitor, partial curve]",
O=C(OCn1ncc(Cl)c(Cl)c1=O)c1ccccc1Cl,active: 2 µM,
COCCNCCCOc1ccc(C(C)(C)c2ccccc2)cc1,"inconclusive [inhibitor, partial curve]",
COc1cccc(NC(=O)c2nn(C34CC5CC(CC(C5)C3)C4)cc2[N+](=O)[O-])c1,active: 0.224 µM,
CCOC(=O)c1c(NC(=O)/C=C\C(=O)O)sc(C)c1-c1ccccc1,"inconclusive [inhibitor, single point]",
O=C(Cn1cnc2c(nnn2Cc2ccc(Cl)cc2)c1=O)N1CCCc2ccccc21,active: 22.4 µM,
CC1CCN(c2nc3c(c(=O)n(C)c(=O)n3C)n2Cc2ccccc2)CC1,"inconclusive [inhibitor, partial curve]",
COc1ccc(-n2c3c(cc(C(=O)NNc4ccccc4C)c2=O)C(=O)CC(C)(C)C3)cc1,active: 20 µM,
COC(=O)CCC(=O)OC1(C)C(=O)C2=CN(c3ccc(OC)cc3)C(c3ccc(OC)cc3)=CC2=C(Br)C1=O (configuration not stated),"inconclusive [inhibitor, single point]",
CC1CCN(C(=O)C2CCN(S(=O)(=O)c3cccc4nonc34)CC2)CC1,"inconclusive [inhibitor, single point]",
O=C(O)/C=C/c1ccccc1Oc1ccc(Cl)cc1Cl,,inactive: 8.15%

Compound,Potency,"activity, negative = inhibition"
CCOC(=O)C1=C(C)NC(C)=C(C(=O)OCC)C1c1ccc(O)cc1,"inconclusive [inhibitor, single point]",
O=C1CC(c2ccc(F)cc2)Cc2nc(N3CCN(c4ccccc4)CC3)ncc21 (configuration not stated),"inconclusive [inhibitor, single point]",
CN1CCN(c2nc3c(c(=O)n(C)c(=O)n3C)n2CC(N)=O)CC1,,inactive: -7.67%
Cc1ccc(S(=O)(=O)N(CC(=O)N/N=C/c2ccco2)Cc2ccccc2)cc1,"inconclusive [inhibitor, single point]",
CCc1nnc(NC(=O)CSc2nnc(Cc3cccn3C)n2C)s1,"inconclusive [inhibitor, partial curve]",
CN(C)S(=O)(=O)c1cccc(C(=O)NCCc2ccccc2)c1,"inconclusive [inhibitor, partial curve]",
CN=C1c2ccccc2CN1c1cccc(C(=O)OC)c1,"inconclusive [inhibitor, single point]",
Cc1ccc2cc(C)c(Sc3nnnn3-c3ccccc3)nc2c1,active: 5.62 µM,
CN(C)c1ccnc(-n2cccc2/C=N/O)c1C#N,,inactive: 9.51%
COc1ccc(C(=O)NC(=S)Nc2ccc(N3CCCC3)cc2)cc1OC,active: 3.55 µM,
COC(=O)CCCC1=CC2=C(c3ccccc3)C(=O)C(C)(OC(=O)C3CCCC3)C(=O)C2=CN1CCCOC(C)C (configuration not stated),"inconclusive [inhibitor, single point]",
CC1CCCC(NC(=O)CSc2ccc(F)cc2)C1C (configuration not stated),"inconclusive [inhibitor, partial curve]",
Cc1ccnc(N=Cc2nc(-c3ccccc3Br)oc2O)c1,active: 3.98 µM,
CN(C)CCN(Cc1cc2cc3c(cc2[nH]c1=O)OCO3)C(=S)NCC1CCCO1 (configuration not stated),"inconclusive [inhibitor, partial curve]",
COC(=O)c1ccc(NC(=O)c2cn(-c3ccccc3)nc2-c2ccncc2)cc1,"inconclusive [inhibitor, single point]",
COc1ccccc1NC(=S)NCc1ccc(S(N)(=O)=O)cc1,,inactive: 1.58%
CCOC(=O)C1(Cc2ccccc2C)CCCN(C(=O)c2cc(C3CC3)[nH]n2)C1 (configuration not stated),,inactive: -3.15%
O=c1ccc(-c2nc3cc(Cl)ccc3n2Cc2ccccc2)c[nH]1,"inconclusive [inhibitor, single point]",
Cc1cc(C2C(C#N)=C(N)OC3=C2C(=O)CC(C)(C)C3)c(C)s1 (configuration not stated),"inconclusive [inhibitor, single point]",
O=C(CSCc1ccccc1)Nc1cccc(C(=O)Nc2ccc(C(=O)O)cc2)c1,"inconclusive [inhibitor, single point]",
CCOc1ccc(-c2nc(CSc3nncs3)cs2)cc1OC,"inconclusive [inhibitor, single point]",
